# Measured values reported in the RNAGym collection of RNA variant scans (doi:10.7554/elife.90254).
# The source gives no read counts; variants with many changes may rest on few reads.
# B1: LINE1-mini (parent)
# chain: GGCAGAGCUCAACACAGCGUGGCAAAGUGGCUGUGGCUAGACUGCC
# Variants of: B1
# Experiment: self-cleavage, relative activity (ratio to wild type); higher = more cleavage; in vitro, sequencing; the parent is a self-cleaving ribozyme
row,Variant,self-cleavage
1,G21U A26U C46A,1.08
2,A26G G27C G44A,0.15
3,G17U G29C G40U,0.07
4,G5C A24U G27C U28A,0.02
5,G5C A12C A25C,0.07
6,A11U C37G C42A,0.01
7,C8U C18U U20A U32C,0.06
8,G1U G17C C31G C45U,0.07
9,C13U U43A G44U,0.07
10,A6U G21A G27C A39C,0.46
11,A4U G21A G33A G36U,0.13
12,G2C G22U U34A,0.08
13,G2C G7C A24C G44U C46U,0.07
14,G7A G22U A26G G33C,0.05
15,G1U C23A A41U,0.17
16,A16C U20A A39C,0.02
17,G19C G35C U43C,0.02
18,A4U U20G G35U,0.02
19,A4C G29A G40C C46G,0.12
20,G1A G17A A26C G27U C31G U32C,0.08
21,C8G G17U G27C U32G G33C U34A C45U,0.02
22,C13U A25G G27C G30U A41C C42G U43G,0.04
23,C3G C10A C46A,0.03
24,G2U G17U C31A A39G G40C,0.02

row,Variant,self-cleavage
1,G1C C18A G19U A41G,0.02
2,G1C G7C C8A G40U,0.05
3,A6G G7U C10U U32A C46A,0.03
4,G7A C8G A24U,0.1
5,G2A C31A G40U,0.04
6,G1U C13U G21U C31U,0.01
7,A16U C18A A24C G36C,0.01
8,G17U G22C C23A U38G A41C,0.01
9,C8A A16U G27C,0.74
10,C8A A11C A16G C18A,0.04
11,A4U C10U A16C C31A G35C,0.01
12,G33U G35C C37G C46U,0
13,G5A C15G C46U,0.07
14,C8U C10G C18A U20C G29A A41U C42G,0
15,G17U G27A G40U,0.03
16,C10A G22A G27U,0.04
17,C13A A24G G40U C46A,0
18,G2U C13G C45G,0.01
19,C10U C15U G22C,0.12
20,G2A C42A C45U,1.73
21,G17A U20G U34A G36U,0.02
22,A12U A25U G33U U34G,0.02
23,G19U U43C C45A,0.16
24,A16C G35C C45G,0.03

row,Variant,self-cleavage
1,G2U A11C G17A U38G C42U C46G,0
2,A26G A41G G44A,0.04
3,G17U G36A U43A,0.17
4,A12G C15A C18G,0.3
5,G21U A26C G29A,0.69
6,G7U C8G C10A A39G C46A,0
7,G17U U20A U34C G40U,0.01
8,C13G G19U C23U,0.07
9,G21A A26C A39C,0.25
10,C15A U20C C46G,0.01
11,A6G G17U U32G C45U,0
12,A14U C23A G33C G35A,0.02
13,G5A G21U G22U U28G C46A,0.1
14,C13U C18U C45A,0.04
15,G5C C15A G35U G40C,0.16
16,C10U A14U U20C G36U,0.01
17,C8A C31A G40A,0.52
18,C8A G29A G30A,0.14
19,C8A U9A C31A G44U,0.03
20,G5A A24U G30A G35C C46U,0.1
21,C3U C8A G36C G40A,0.08
22,C13U G27U G33U,0.03
23,C8U U9A A16U,0.25
24,A11U U28C C46G,0.28

row,Variant,self-cleavage
1,A6U G17A U20C C37U,0.02
2,G1C G30C A41G,0
3,A6U U28C C37G,0
4,G2A G17C C31U U34G,0.01
5,C13U G17C U20C,0.08
6,C15A C23A A24G,0.02
7,C15U A26U A41G U43C,0.09
8,A4U C15U G17A,0.03
9,G2C A11U A16C A25G A39G A41U,0
10,A26G U28C G30U U32G G44C,0.02
11,G1U C3A G30A,1.51
12,C10A G27C G40U,0.01
13,A11C C13G G29U G33C G40U,0.01
14,G2C C18A C31G,0.03
15,A4G A6C G40U A41C C46U,0.16
16,C8A A11G U20G G40U,0
17,G19U G29A G36A C37U,0.01
18,G2A G19U G33A,0.18
19,C8A C10A A26U U38C,0
20,C3U G5U G29U,0.09
21,A14G C18G U43C,0.04
22,C10G A12G C15A A39C A41C,0.01
23,G1U A16G U20A,0.07
24,A4C U28C G44C,0.03

row,Variant,self-cleavage
1,G5U C10G G21U C42A,0.02
2,C10A C42U C45A,0
3,C8G C10A A26G,0.01
4,C8A C13A C46A,0.2
5,G1C G17U A41G,0.02
6,A6C A12C G36U,0.07
7,A6G C8G C10G A11G C46U,0.02
8,G1U G27A G40U,0.01
9,C10G A16G G40U A41C,0.01
10,A11G A14C G21A A25C G33U,0.01
11,U20G A39C A41U,0.23
12,A11G C15G U28G G30C,0
13,G33A G36U C37A U43C,0.02
14,G19U C23U G29C G35C G44U,0.12
15,G2A A4C A12U G22U U28A,0.26
16,C15U G40A U43C,0.11
17,C13U A24G G30C,0.08
18,G2C G5C A6G U9A,0.02
19,C8A G33C G36C,0.07
20,G2U U9G G36A G40U,0.05
21,G1A C13G G44A,0.08
22,G2U G21C C37A,0.02
23,G5A A6C G7C C13A C18G,0.08
24,A6U A16C G21C,0.26

row,Variant,self-cleavage
1,U9C A12U U43C,0.04
2,C10A C13A A16G C46A,0.03
3,G2A G19C U34A,0.45
4,U9A C13A A24G C42U,0.05
5,A6G C8U U9A C18U C23U C37G G44U,0.05
6,U28A U32G U34C G44A C45U,0
7,A6G C31U G44A,0.03
8,G21A G30C C42G U43A C46U,0.04
9,C3G A12C C13U C15U G22U U34C C45A,0.08
10,C31U G35A C46U,0.02
11,A26C G36U G40A C42A,0.06
12,A11G G36A A41U,0.01
13,G1C C18A G36C,0
14,A4U A12U C18G G35U,0.09
15,A16G G22U U28A C37A,0.02
16,G2A C3U G33A U38A C46U,0.4
17,C15U G21U G44U C46A,0.05
18,G1C C15G G21A G22A A25C G33A,0.01
19,C15A U32G G36A,0.03
20,A6G C8A C15A G40C,0.15
21,U20C G27A C37U A39G,0.02
22,A14G A25G A26U U43C,0.01
23,U32A G36A C46U,0.16
24,A4U C18A U43G C46A,0.02

row,Variant,self-cleavage
1,U43A G44U C45A,0.25
2,G5A A41U G44U,0.05
3,A16G U20C G21U G30C,0.11
4,A4G A11U G35U C37A,0.01
5,C8G U9G G19U C31U U32C,0
6,C13U U34G G44U,0.03
7,G7A C15A G19U G30A A41U C46G,0.08
8,G5A G36A C42A,0.14
9,C3U C10G G33A,0.03
10,C13A G17C G22C,0.02
11,C8A U34C G35C,0.05
12,A14G A24U C37A,0.05
13,C10A A12G G22U G29C A41G,0
14,C8U C13G G19A C23G A24G,0.12
15,G1C A24U G30U,0.1
16,C8A A24C C37U,0.27
17,C8U G22U U28C C42A,0.02
18,C15A G36C C37U,0.04
19,C3U G22U G33A G35U A41G,0.11
20,G2U C13A G30A,0.04
21,G2A A11G G21U G29U G40U,0.01
22,A14G G19A G22U C31A G35U,0.22
23,G7U C8A C10U A14U C31U,0.09
